The record followed here is paper PMC12820563, “FoxP3 forms a head-to-head dimer in vivo and stabilizes its multimerization on adjacent microsatellites”.

The other results are listed elsewhere or left out.

The target of this experiment is T1, MBP-FoxP1dN (Mus musculus, UniProt P58462 326-579).
T1 sequence: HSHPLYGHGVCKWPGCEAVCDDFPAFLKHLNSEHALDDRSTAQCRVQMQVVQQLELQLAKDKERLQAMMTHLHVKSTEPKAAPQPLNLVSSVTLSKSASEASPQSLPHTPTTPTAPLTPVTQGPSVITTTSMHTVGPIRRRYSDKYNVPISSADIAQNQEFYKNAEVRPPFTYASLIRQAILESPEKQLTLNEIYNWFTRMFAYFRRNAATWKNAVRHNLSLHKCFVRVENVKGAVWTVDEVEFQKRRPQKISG
The experiment is described as follows: PD-seq (MBP pull-down with sequencing); 20 mM Tris-HCl pH 7.5, 100 mM NaCl, 1.5 mM MgCl2, 0.4 uM protein, 0.1 uM dsDNA library, 30 min, room temperature, amylose pull-down; high values mean tight binding. To be noted: protein: recombinant; tags: His6-MBP; chain copies: 2; dsDNA, one strand shown. The procedure, abridged:
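Binding is reads-per-million enrichment of pull-down over input, with replicates pooled. It comes from 30 min room-temperature incubation in Tris pH 7.5 buffer with NaCl and MgCl2 of 0.4 µM His6-MBP-tagged, N-terminally truncated mouse FoxP3 or FoxP1 fragment from E. coli with 0.1 µM Klenow-filled degenerate double-stranded DNA library, followed by amylose resin capture, three washes and Illumina sequencing of the released DNA.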
For “GATGATTGTTCTCCCAGCTGATGAATTCTTTTTCTCGAGTAAACAAATTTTCCTAATCTTTCTGTTCAAGCGCCATCTAC”, the binding signal is 0.884 RPM ratio (pull-down/input). For the sequence “GATGATTGTTCTCCCAGCTGATGAATTTTGGTGTTCGAGTAAACAAATTTTCCTAATCTTTCTGTTCAAGCGCCATCTAC”, the binding signal is 1.07 RPM ratio (pull-down/input). “GATGATTGTTCTCCCAGCTGATGAATTTGAGCATTCGAGTAAACAAATTTTCCTAATCTTTCTGTTCAAGCGCCATCTAC”: the binding signal is 1.11 RPM ratio (pull-down/input). With “GATGATTGTTCTCCCAGCTGATGAATTTAACGCGTCGAGTAAACAAATTTTCCTAATCTTTCTGTTCAAGCGCCATCTAC” the figure was 0.987 RPM ratio (pull-down/input); with “GATGATTGTTCTCCCAGCTGATGAATTCGCATCATCGAGTAAACAAATTTTCCTAATCTTTCTGTTCAAGCGCCATCTAC”, 1.43 RPM ratio (pull-down/input); with “GATGATTGTTCTCCCAGCTGATGAATTCTCCGTATCGAGTAAACAAATTTTCCTAATCTTTCTGTTCAAGCGCCATCTAC”, 0.923 RPM ratio (pull-down/input). On to “GATGATTGTTCTCCCAGCTGATGAATTTATTAGATCGAGTAAACAAATTTTCCTAATCTTTCTGTTCAAGCGCCATCTAC”, for which the binding signal was 1.07 RPM ratio (pull-down/input). On to “GATGATTGTTCTCCCAGCTGATGAATTTTGGTCATCGAGTAAACAAATTTTCCTAATCTTTCTGTTCAAGCGCCATCTAC”, for which the binding signal is 0.927 RPM ratio (pull-down/input). To “GATGATTGTTCTCCCAGCTGATGAATTCACTTTATCGAGTAAACAAATTTTCCTAATCTTTCTGTTCAAGCGCCATCTAC” belongs 0.944 RPM ratio (pull-down/input); to “GATGATTGTTCTCCCAGCTGATGAATTATAAAGTTCGAGTAAACAAATTTTCCTAATCTTTCTGTTCAAGCGCCATCTAC”, 1.04 RPM ratio (pull-down/input); to “GATGATTGTTCTCCCAGCTGATGAATTAAGATAGTCGAGTAAACAAATTTTCCTAATCTTTCTGTTCAAGCGCCATCTAC”, 0.919 RPM ratio (pull-down/input). To “GATGATTGTTCTCCCAGCTGATGAATTATGGCAGTCGAGTAAACAAATTTTCCTAATCTTTCTGTTCAAGCGCCATCTAC” belongs 0.946 RPM ratio (pull-down/input); to “GATGATTGTTCTCCCAGCTGATGAATTCGACCAGTCGAGTAAACAAATTTTCCTAATCTTTCTGTTCAAGCGCCATCTAC”, 0.754 RPM ratio (pull-down/input). With “GATGATTGTTCTCCCAGCTGATGAATTCTAACGATCGAGTAAACAAATTTTCCTAATCTTTCTGTTCAAGCGCCATCTAC”, the binding signal is 0.877 RPM ratio (pull-down/input). With “GATGATTGTTCTCCCAGCTGATGAATTAGGTCAATCGAGTAAACAAATTTTCCTAATCTTTCTGTTCAAGCGCCATCTAC” the figure was 1 RPM ratio (pull-down/input); with “GATGATTGTTCTCCCAGCTGATGAATTACAGCGATCGAGTAAACAAATTTTCCTAATCTTTCTGTTCAAGCGCCATCTAC”, 1.16 RPM ratio (pull-down/input).

Regarding “GATGATTGTTCTCCCAGCTGATGAATTAAAAAAGTCGAGTAAACAAATTTTCCTAATCTTTCTGTTCAAGCGCCATCTAC”, the binding signal is 0.843 RPM ratio (pull-down/input). With “GATGATTGTTCTCCCAGCTGATGAATTGCGTGATTCGAGTAAACAAATTTTCCTAATCTTTCTGTTCAAGCGCCATCTAC” the figure was 1.21 RPM ratio (pull-down/input); with “GATGATTGTTCTCCCAGCTGATGAATTCTTCGTGTCGAGTAAACAAATTTTCCTAATCTTTCTGTTCAAGCGCCATCTAC”, 0.867 RPM ratio (pull-down/input); with “GATGATTGTTCTCCCAGCTGATGAATTCAGGATCTCGAGTAAACAAATTTTCCTAATCTTTCTGTTCAAGCGCCATCTAC”, 0.795 RPM ratio (pull-down/input). Consider “GATGATTGTTCTCCCAGCTGATGAATTACCAACATCGAGTAAACAAATTTTCCTAATCTTTCTGTTCAAGCGCCATCTAC”, for which the binding signal was 1.94 RPM ratio (pull-down/input).

Consider “GATGATTGTTCTCCCAGCTGATGAATTTAGCTACTCGAGTAAACAAATTTTCCTAATCTTTCTGTTCAAGCGCCATCTAC”, for which the binding signal is 0.924 RPM ratio (pull-down/input). To “GATGATTGTTCTCCCAGCTGATGAATTGTGTGACTCGAGTAAACAAATTTTCCTAATCTTTCTGTTCAAGCGCCATCTAC” belongs 1.1 RPM ratio (pull-down/input); to “GATGATTGTTCTCCCAGCTGATGAATTACCTGTTTCGAGTAAACAAATTTTCCTAATCTTTCTGTTCAAGCGCCATCTAC”, 1.12 RPM ratio (pull-down/input); to “GATGATTGTTCTCCCAGCTGATGAATTAACGTGTTCGAGTAAACAAATTTTCCTAATCTTTCTGTTCAAGCGCCATCTAC”, 1.02 RPM ratio (pull-down/input). With “GATGATTGTTCTCCCAGCTGATGAATTTTGGAGGTCGAGTAAACAAATTTTCCTAATCTTTCTGTTCAAGCGCCATCTAC” the figure was 0.772 RPM ratio (pull-down/input); with “GATGATTGTTCTCCCAGCTGATGAATTGTCTTTATCGAGTAAACAAATTTTCCTAATCTTTCTGTTCAAGCGCCATCTAC”, 1.18 RPM ratio (pull-down/input); with “GATGATTGTTCTCCCAGCTGATGAATTCCCAAATTCGAGTAAACAAATTTTCCTAATCTTTCTGTTCAAGCGCCATCTAC”, 0.936 RPM ratio (pull-down/input). As for “GATGATTGTTCTCCCAGCTGATGAATTTGTAGAATCGAGTAAACAAATTTTCCTAATCTTTCTGTTCAAGCGCCATCTAC”, the binding signal was 1.08 RPM ratio (pull-down/input). With “GATGATTGTTCTCCCAGCTGATGAATTACTCGGGTCGAGTAAACAAATTTTCCTAATCTTTCTGTTCAAGCGCCATCTAC” the figure was 0.857 RPM ratio (pull-down/input); with “GATGATTGTTCTCCCAGCTGATGAATTGGATTTTTCGAGTAAACAAATTTTCCTAATCTTTCTGTTCAAGCGCCATCTAC”, 0.854 RPM ratio (pull-down/input); with “GATGATTGTTCTCCCAGCTGATGAATTCGATGACTCGAGTAAACAAATTTTCCTAATCTTTCTGTTCAAGCGCCATCTAC”, 0.877 RPM ratio (pull-down/input). With “GATGATTGTTCTCCCAGCTGATGAATTATTACACTCGAGTAAACAAATTTTCCTAATCTTTCTGTTCAAGCGCCATCTAC” the figure was 1.18 RPM ratio (pull-down/input); with “GATGATTGTTCTCCCAGCTGATGAATTGACCGACTCGAGTAAACAAATTTTCCTAATCTTTCTGTTCAAGCGCCATCTAC”, 0.924 RPM ratio (pull-down/input). To “GATGATTGTTCTCCCAGCTGATGAATTAGAAACCTCGAGTAAACAAATTTTCCTAATCTTTCTGTTCAAGCGCCATCTAC” belongs 0.823 RPM ratio (pull-down/input); to “GATGATTGTTCTCCCAGCTGATGAATTCAGAACGTCGAGTAAACAAATTTTCCTAATCTTTCTGTTCAAGCGCCATCTAC”, 0.84 RPM ratio (pull-down/input).

For the sequence “GATGATTGTTCTCCCAGCTGATGAATTAGACGTATCGAGTAAACAAATTTTCCTAATCTTTCTGTTCAAGCGCCATCTAC”, the binding signal was 1.02 RPM ratio (pull-down/input). For the sequence “GATGATTGTTCTCCCAGCTGATGAATTTGGCTAGTCGAGTAAACAAATTTTCCTAATCTTTCTGTTCAAGCGCCATCTAC”, the binding signal is 0.843 RPM ratio (pull-down/input). With “GATGATTGTTCTCCCAGCTGATGAATTTTCCGGGTCGAGTAAACAAATTTTCCTAATCTTTCTGTTCAAGCGCCATCTAC” the figure was 0.769 RPM ratio (pull-down/input); with “GATGATTGTTCTCCCAGCTGATGAATTTAAGGGGTCGAGTAAACAAATTTTCCTAATCTTTCTGTTCAAGCGCCATCTAC”, 0.802 RPM ratio (pull-down/input).
